From PubChem BioAssay AID2202238 (Ras Initiative Chemistry Research Team, Frederick National …, 2025) come the findings set out here.

Out of some 2,200 compounds screened, fewer than 10 were called active. The list shows a part of the results. Where no call is shown, the source marks the result inconclusive.

In this experiment the target is GTPase KRas (Homo sapiens) (UniProt P01116). The experiment can be described thus: Covalent labelling of cysteine mutants by fragments, read by mass spectrometry (AID 2202238). Set-up: protein at 5 µM with 500 µM competing thiol for 1.5 h. Particulars: KRAS G12D cysteine mutants, disulfide tethering, MALDI-TOF labeling; stronger effect = higher value; H27C mutant labeling; fragment at 500 µM.
Sequence of UniProt P01116 (P01116 whole entry, looked up, the tested form may be a part): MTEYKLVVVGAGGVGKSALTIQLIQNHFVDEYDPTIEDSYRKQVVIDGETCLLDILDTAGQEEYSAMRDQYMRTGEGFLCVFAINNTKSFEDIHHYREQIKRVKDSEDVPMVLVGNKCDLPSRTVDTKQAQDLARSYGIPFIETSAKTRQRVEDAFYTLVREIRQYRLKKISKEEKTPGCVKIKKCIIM
Turning to `O=C1NCCN(C(=O)CCS)C1c1ccccc1` (centres undefined), the percent labeling came out at 33.9%.

Regarding `Cc1ccc(CN(C)C)cc1NC(=O)CCS`, the percent labeling is 50.5%.

In the case of `O=C(NCCS)c1cn(CCO)c(=O)[nH]c1=O`, the percent labeling came to 42.8%.

On to `O=C(NCCS)c1cccn1Cc1ccccc1Cl`, for which the percent labeling was found to be 32.6%.

Compound `COc1ccc(OCCN2CCN(C(=O)CCS)CC2)cc1` had a percent labeling of 40.6%.

`Cc1cc(Br)ccc1NC(=O)CNC(=O)CCS` gave a percent labeling of 30.2%.

In turn, `O=C(NCCS)C1CCC2(CC1)COCCO2` (centres undefined) showed a percent labeling of 32%.

Compound `O=C(NCCS)c1cccn1-c1c(Cl)cccc1Cl` showed a percent labeling of 34.1%.

On to `CCn1ccnc1C1CCCCN1C(=O)CCS` (centres undefined), for which the percent labeling is 38.3%.

In turn, `O=C(NCCS)c1ccc(Br)cc1-n1cnnn1` yielded a percent labeling of 27.6%.

In turn, `O=C(CCS)NC1CCN(Cc2c[nH]c3ncccc23)CC1` registered a percent labeling of 43%.

`CN(Cc1ccco1)C(=O)NCC(=O)NCCS` yielded a percent labeling of 21.5%.

Regarding `O=C(CCS)N1CCN(Cc2cc3ccccc3o2)CC1`, the percent labeling turned out to be 43.6%.

Consider `Cc1nn(C)c2nc(-c3ccccc3)cc(C(=O)NCCS)c12`, for which the percent labeling worked out at 37.9%.

`O=C(CCS)N1CCOCC1c1ncn(Cc2ccccc2)n1` (centres undefined) gave a percent labeling of 39.5%.

Compound `O=C(CCS)NCC(=O)Nc1cccc2cccnc12` came in with a percent labeling of 30.4%.

`Cc1nn(CC(=O)NCCS)c2nc(C(C)C)cc(C(F)(F)F)c12` gave a percent labeling of 11.1%.

The compound `Cn1ncc2cc(CNC(=O)CCS)cnc21` showed a percent labeling of 33.2%.

As for `COc1ccc2c(C)c(CCC(=O)NCCS)c(=O)oc2c1`, the percent labeling turned out to be 31.8%.

As to `Cc1cc(N2CC(NC(=O)CCS)C2)cc(=O)o1`, the percent labeling is 38.9%.

Consider `O=C(NCCS)c1ccc(=O)n(-c2ccccc2F)c1`, for which the percent labeling was 47.4%.

In the case of `Cc1nc2c(c(C)c1CC(=O)NCCS)c(=O)[nH]n2C`, the percent labeling is 31%.

Regarding `CN(CCCc1cc(-c2ccccc2)n(C)n1)C(=O)CCS`, the percent labeling stood at 41.1%.

Regarding `O=C(NCCS)C1CC(=O)N(Cc2ccc(F)cc2F)C1` (centres undefined), the percent labeling was determined as 37.7%.

In turn, `Cc1nc2nc[nH]n2c(=O)c1CCC(=O)NCCS` had a percent labeling of 21.7%.

In turn, `O=C(CN1C(=O)NC(c2cccs2)(C2CC2)C1=O)NCCS` (centres undefined) yielded a percent labeling of 27.8%.

On to `O=C(COC(c1ccccc1)c1ccccc1)NCCS`, for which the percent labeling came out at 24%.

`CN1C(=O)CCc2cc(C(=O)NCCS)ccc21`: the percent labeling was 45.7%.

In the case of `CN(C)C(C(=O)NCCS)c1ccc(Cl)cc1` (centres undefined), the percent labeling amounted to 4.5%.

The compound `O=C(NCCS)c1ccn(Cc2ccccc2)c1` had a percent labeling of 38.1%.

As to `O=C(CCS)NCCn1c(=O)[nH]c2cccnc21`, the percent labeling was determined as 32.9%.

`O=C(NCCS)c1cccc2cnccc12` showed a percent labeling of 51%.

The compound `Cc1nc(-c2c(C)noc2C)sc1C(=O)NCCS` gave a percent labeling of 36%.

`O=C(NCCS)c1ccc(C(=O)N2CCOCC2)cc1` showed a percent labeling of 40.4%.

The compound `Cn1cc(C(=O)NCCS)c(C(F)(F)F)c1` yielded a percent labeling of 38.6%.

For the compound `O=C(Cn1cnc2ccc(Br)cc2c1=O)NCCS`, the percent labeling amounted to 25.8%.

The compound `O=C(CCS)Nc1cn(CCOCC(F)(F)F)nc1-c1ccccn1` displayed a percent labeling of 22.4%.

Take `O=C(CCNC(=O)Nc1ccc(Br)cc1)NCCS`: the percent labeling came to 15.7%.

In turn, `NC(=O)c1cn(C2CN(C(=O)CCS)C2)nn1` had a percent labeling of 30.8%.

`Cc1c(Br)cc(C(=O)NCCS)c(=O)n1C` registered a percent labeling of 43.1%.

On to `O=C(NCCS)c1nn(-c2cc(Cl)ccc2F)c2c1CCC2`, for which the percent labeling worked out at 29.5%.

The compound `O=C(CCS)N1CCC2(CC1)Cc1ccccc1NC2=O` yielded a percent labeling of 58.4%.

The compound `CCn1cc(-c2cc(C(F)(F)F)n(CCCNC(=O)CCS)n2)cn1` gave a percent labeling of 27.4%.

With `O=C(CCS)NC1CCN(CCOc2ccc(Cl)cc2)CC1`, the percent labeling amounted to 48.8%.

Compound `Cc1ccc(-n2ncc(NC(=O)CCS)c2C)cc1` displayed a percent labeling of 39.2%.

`O=C(NCCS)C1(c2c(Cl)cccc2Cl)CCC1` came in with a percent labeling of 29.3%.

`O=C(NCCS)c1ccc(CN2C(=O)CNC2=O)cc1` yielded a percent labeling of 42.3%.

`O=C(NCCS)c1csc(-c2cccc3ccccc23)n1` came in with a percent labeling of 28.6%.

For the compound `O=C(CCS)NC1CC(Cn2ccnn2)C1` (centres undefined), the percent labeling amounted to 30.2%.

The compound `O=C(NCCS)c1sc(N2CCOCC2)nc1Cl` gave a percent labeling of 38.5%.

For `Cc1c(C(=O)NCCS)nnn1-c1ccc(F)cc1`, the percent labeling worked out at 28.1%.

`O=C(NCCS)c1coc(-c2c(F)cccc2F)n1` yielded a percent labeling of 35.7%.

`CC1(C)Cc2occc2CN(C(=O)CCS)C1` had a percent labeling of 37.6%.

Compound `O=C(CCS)N1CCC(c2c[nH]c3ccc(F)cc23)CC1` returned a percent labeling of 42.8%.

Turning to `COc1cc(CNC(=O)CCS)ccc1OCc1cccnc1`, the percent labeling is 41.4%.

Compound `O=C(NCCS)[C@]12CCC[C@H]1CN(Cc1ccccc1)C2` had a percent labeling of 43.9%.

Regarding `CN(CC1CCCCC1)C(=O)C(C)(C)NC(=O)CCS`, the percent labeling stood at 40%.

Regarding `O=C(NCCS)C1CCN(C(=O)c2csc(-c3ccccc3)n2)CC1`, the percent labeling came to 24.5%.

For the compound `Cc1ccc(CNC(=O)CCS)c(-n2cc(Cl)cn2)n1`, the percent labeling came to 42.2%.

For `O=C(NCCS)c1cnc(-c2ccccc2)nc1`, the percent labeling was determined as 16.5%.

`CCc1n[nH]c(=O)c(C(=O)NCCS)c1CC` returned a percent labeling of 31.4%.

For `Cc1ccc(C)c(Sc2ccc(NC(=O)CCS)cc2)c1`, the percent labeling stood at 26.3%.

The compound `O=C(CC1(Cn2cnnn2)CCCCC1)NCCS` gave a percent labeling of 38%.

Compound `O=C(CCS)NC1(Cc2cccc(Br)c2)CC1` gave a percent labeling of 37.7%.

Take `O=C(CCS)NCCc1ccc(O)cc1O`: the percent labeling was 40.6%.

`CC(C)(NC(=O)CCS)c1nccc(C(F)(F)F)n1`: the percent labeling stood at 33.7%.

Take `O=C(NCCS)c1cc(Br)c2c(c1)OCCO2`: the percent labeling came to 35.9%.

Regarding `O=C(NCCS)c1nc(-c2cccc(C(F)(F)F)c2)cs1`, the percent labeling is 41.8%.

Compound `O=C(NCCS)c1csc(Cc2ccccc2F)n1` had a percent labeling of 20.8%.
